Measurements as given in PubChem BioAssay AID360 (National Center for Advancing Translational Sciences (NCATS), 2006).
Among all 48,000 compounds or so, about 550 (1.1%) were called active. Not shown: some 4% with an inconclusive outcome. No stated cut-off is given here; in the data, active means potency below about 15 µM; inconclusive means mostly about 16 µM to 33 µM; inactive means weaker than that. The list shows a part of the results.

Molecular target: Lysosomal acid glucosylceramidase (Homo sapiens) (UniProt P04062)
Assay: Glucocerebrosidase;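 further: the screen sought inhibitors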
Details: purified enzyme, resorufin glucoside fluorescence (screen aimed at inhibitors), 20 min; series mostly up to 77 µM
Summary of the method: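 Compounds titrated against 0.2 nM normal enzyme, 30 uM resorufin beta-D-glucopyranoside substrate, citrate/phosphate buffer with taurocholate and tween-20, pH 5.9. Reaction ran 20 min at room temperature; fluorescence (Ex 548/Em 600) gave AC50.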
Potency means the concentration at half of the fitted maximal effect.

Chain of UniProt P04062 (P04062 whole entry, looked up): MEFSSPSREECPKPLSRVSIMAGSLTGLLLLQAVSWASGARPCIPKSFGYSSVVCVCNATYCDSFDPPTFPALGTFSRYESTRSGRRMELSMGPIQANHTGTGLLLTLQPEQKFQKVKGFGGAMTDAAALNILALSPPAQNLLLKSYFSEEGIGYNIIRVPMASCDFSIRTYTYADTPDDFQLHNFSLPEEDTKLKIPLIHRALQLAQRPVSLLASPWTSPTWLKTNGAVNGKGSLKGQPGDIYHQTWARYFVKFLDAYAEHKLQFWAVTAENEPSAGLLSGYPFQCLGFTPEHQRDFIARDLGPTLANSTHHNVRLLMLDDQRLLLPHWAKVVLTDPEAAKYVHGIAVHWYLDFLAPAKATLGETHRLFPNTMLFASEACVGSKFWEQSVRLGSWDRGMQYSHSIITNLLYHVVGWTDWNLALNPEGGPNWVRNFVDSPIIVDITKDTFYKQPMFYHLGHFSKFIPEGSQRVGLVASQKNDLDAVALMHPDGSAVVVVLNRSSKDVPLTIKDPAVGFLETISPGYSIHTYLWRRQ

Potency, inactive:
CCCCN(CC)C(=O)CN(C)S(=O)(=O)c1cccc2nsnc12 > 76.9 µM, CC1CCCCN1CCNC(=O)C1CCN(S(=O)(=O)N2CCCCC2)CC1 (stereo not drawn) > 76.9 µM, CCn1c(CCNC(=O)c2cccs2)nnc1SCC(=O)NC1CCCCC1 > 76.9 µM, Cc1ccc(C)c(NC(=O)C2CCCN2C(=O)OC(C)(C)C)c1 (stereo not drawn) > 76.9 µM, O=C(O)c1ccc(COc2ccc(CO)cc2Cl)cc1 > 76.9 µM, CC(CCc1ccccc1)NCc1ccncc1 (stereo not drawn) > 76.9 µM, COCCN(CCOC)S(=O)(=O)c1ccc(C(=O)NC2CCN(Cc3ccccc3)CC2)cc1 > 76.9 µM, O=C(NCCN1CCN(C(=O)NC2CCCCC2)CC1)NC1CCCCC1 > 76.9 µM, Fc1ccc(-c2nc3n(n2)Cc2ccccc2-3)cc1 > 76.9 µM, COCc1cc(=O)n2[nH]c(C)cc2n1 > 76.9 µM, COc1ccccc1/C=C/CN1CCOCC1 > 76.9 µM, CCOC(=O)N1CCN(C(=O)CSc2nnc(-c3ccc(Cl)s3)o2)CC1 > 76.9 µM, CCc1nnc(NC(=O)CSc2nnc(-c3ccncc3)n2Cc2ccccc2)s1 > 76.9 µM, CSc1nnc(-c2ccccc2Cl)n1N > 76.9 µM, Cc1cc2nnc(SCC(=O)NCc3ccco3)n2c2ccccc12 > 76.9 µM, CN(C)C(=O)CN1C(=O)C2CC=C(Cl)CC2C1=O (stereo not drawn) > 76.9 µM, Cc1ccc(S(=O)(=O)Cn2nnnc2CN2CCN(C(=O)c3ccco3)CC2)cc1 > 76.9 µM, O=C(NCCCN1CCCC1)Nc1cccc2ccccc12 > 76.9 µM, CS(=O)(=O)N1CCCC(C(=O)NCc2ccc(F)cc2)C1 (stereo not drawn) > 76.9 µM, COc1ccc(CCNC(=O)CCCCn2c(=O)[nH]c3ccccc3c2=O)cc1OC > 76.9 µM, COc1oc(-c2ccccc2)nc1C(F)(F)F > 76.9 µM, Cc1ccc2nc(NC3=NCN(CCN4CCOCC4)CN3)nc(C)c2c1 > 76.9 µM, CSc1nc2c(c(=O)n1-c1ccccc1)SCC2 > 76.9 µM, CCOC(=O)c1cc(-c2ccc(C)o2)nn1CCC#N > 76.9 µM, COc1ccc(C(=O)Cn2nnc(-c3ccccc3-n3cnnn3)n2)cc1 > 76.9 µM, C=CCOc1nc(N(C)C)nc(N(C)C)n1 > 76.9 µM, CCc1ccc2nc(NC(=O)c3ccc4c(=O)[nH]c(CN5CCOCC5)nc4c3)sc2c1 > 76.9 µM, COCCn1c(C)cc(C(=O)COC(=O)c2c(C)nn(Cc3ccccc3)c2C)c1C > 76.9 µM, Cc1ccc(S(=O)(=O)N2CCN(C(=O)C3COc4ccccc4O3)CC2)cc1C (stereo not drawn) > 76.9 µM, O=C(NC1CC1)C1CCCN(C(=O)Nc2ccc(F)cc2)C1 (stereo not drawn) > 76.9 µM, O=C(Cn1c(=O)n(-c2cccc(Cl)c2)c(=O)n1CC(=O)N1CCCCC1)N1CCCCC1 > 76.9 µM, CCOC(=O)CCN(Cc1cccs1)S(=O)(=O)c1ccc(F)cc1 > 76.9 µM, CCOc1ccc(NC(=O)CSc2nnc(C3CC3)n2N)cc1 > 76.9 µM, Cc1ccc(S(=O)(=O)N2CCN(C(=O)CN3CCOCC3)C2)cc1 > 76.9 µM, CCn1c(COc2cccc(C)c2)nnc1SCC(=O)Nc1cccc(C(=O)OC)c1 > 76.9 µM, CCc1nnc(NC(=O)CSc2nnc3scc(-c4ccc(C)cc4)n23)s1 > 76.9 µM, Fc1cccc(Cl)c1-c1nnc2ccc(N3CCOCC3)nn12 > 76.9 µM, O=C(CCS(=O)(=O)c1cccc2nonc12)N1CC(=O)N(CCc2ccccc2)C(=O)C1 > 76.9 µM, Cc1ccc(-n2c(SCC(=O)Nc3ccc4cn[nH]c4c3)nnc2-c2ccco2)cc1 > 76.9 µM, N#CC1=C(C2CC2)CC(c2ccccc2)C(C#N)=C1N (stereo not drawn) > 76.9 µM, Cc1noc(NS(=O)(=O)c2ccc(NC(=O)CCC3CCCCC3)cc2)c1C, CC1(C)CC(=O)C(C=NCCN2CCN(CCCCS(=O)(=O)O)CC2)=C(O)C1 > 76.9 µM, CCOC(=O)c1cnc(N2CCOCC2)[nH]c1=O > 76.9 µM, COc1ccc(-c2cc(C(=O)Nc3ccc(C)cc3)no2)cc1 > 76.9 µM, Cc1cc(NC(=O)CSc2nnc3c(C)cc4c(C)ccc(C)c4n23)no1 > 76.9 µM, Cn1c(=O)[nH]c(=O)c2c1nc(NCCCO)n2CCCc1ccccc1 > 76.9 µM, COc1cc2[nH]c(=O)n(CCC(=O)NCc3cccnc3)c(=O)c2cc1OC > 76.9 µM, Cc1ccc(N2CCCn3c2nc2c3c(=O)n(CC(=O)OCc3ccccc3)c(=O)n2C)cc1C > 76.9 µM, Cc1nc2nc(SCC(=O)N3CCOCC3)nn2c(C)c1Cc1c(F)cccc1Cl > 76.9 µM, CCc1cccc(NC(=O)C2CCCC2)c1 > 76.9 µM, CCC(=O)N1c2ccc(S(=O)(=O)CCC(=O)Nc3nccs3)cc2CC1C (stereo not drawn) > 76.9 µM, O=C(NCc1ccco1)c1cccn2c(=O)c3sccc3nc12 > 76.9 µM, COc1ccc(CNS(=O)(=O)c2ccc(S(=O)(=O)N3CCCCC3)cc2)cc1 > 76.9 µM, Cc1cc(NC(=O)CCS(=O)(=O)c2nc(-c3ccccc3)cc(C(F)(F)F)n2)no1 > 76.9 µM, O=C(Nc1cccc2ncccc12)c1cc2ccccc2o1 > 76.9 µM, CCCC(=O)Nc1ccc(Cl)c(NC(=O)c2ccco2)c1 > 76.9 µM, O=C(CSC1CCCCC1)Nc1nccs1 > 76.9 µM, O=C(NCCCN1CCN(c2cccc(Cl)c2)CC1)c1cccc(N2CCCC2=O)c1 > 76.9 µM
